Experimental data taken from PubChem BioAssay (NCI).
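In this assay, cells in 96-well plates receive the compound at five concentrations for 48 hours. Endpoints are linearly interpolated between the surrounding concentrations. GI50 = concentration required for 50% inhibition of growth. TGI denotes the concentration required for complete inhibition of growth.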

System: NCI-H322M lung
Test: NCI anticancer screen, dose series, 48 h

## CN(C)CCn1cc(-c2ccc3c(Nc4ccc(CC(=O)Nc5cccc(F)c5)cc4)ncnc3c2)cn1
  GI50: > 10 µM
  TGI: > 10 µM

## Cc1nc2c(=O)[nH]c(=O)nc-2n(CCO)c1C
  TGI: > 100 µM

## CCCCCCCCCCCCCC(=O)OCC1OC(OC)C(NC(=O)N(CCCl)N=O)C(O)C1O (configuration not stated)
  TGI: 39.8 µM

## Cc1cc(Cl)ccc1NC(=O)C1C(=O)N(c2ccc(Cl)cc2C)C(=O)/C1=N\N (configuration not stated)
  TGI: > 100 µM

## COc1ccc(C(=O)Nc2cccc(C3CC(=O)c4c(cc(OC)c(OC)c4OC)O3)c2)cc1 (configuration not stated)
  GI50: 5.36 µM
  TGI: > 100 µM

## CC(C)[C@]12O[C@H]1[C@@H]1O[C@]13[C@]1(O[C@H]1C[C@H]1c4c(C(=O)c5ccccc5)oc(OC(=O)c5ccccc5)c4CC[C@@]13C)[C@@H]2O
  GI50: 0.0312 µM
  TGI: 4.61 µM

## Cc1ccc(Nc2ncnc3sc(SCc4ccccc4)nc23)cc1
  TGI: > 100 µM

## N#C/C(=C/N1CCN(C(=O)c2ccco2)C1=S)C(N)=O
  GI50: 17.6 µM
  TGI: 75.1 µM

## COc1cc2c(cc1-c1c(C)noc1C)ncc1nc(C3CCCCC3)n(C3CCC(OC(F)F)CC3)c12 (configuration not stated)
  GI50: 4.35 µM
  TGI: > 100 µM

## Cn1cc(C(=O)C2CCCCC2)ccc1=O
  TGI: > 100 µM

## Cc1ccccc1NC(=O)NC(CC(N)=O)c1ccc2c(c1)nc(-c1cccc(Oc3ccc(C(C)(C)C)cc3)c1)n2CCCN1CCCCC1C (configuration not stated)
  GI50: 5.55 µM
  TGI: 11.9 µM

## Fc1ccc(Nc2nc(Nc3ccc(-c4nc5ccccc5[nH]4)cc3)nc(N3CCCC3)n2)cc1
  GI50: 3.74 µM
  TGI: 15.9 µM

## O=C1c2cc3c(cc2-c2c1c1ccc([N+](=O)[O-])cc1c(=O)n2CCCCl)OCO3
  GI50: 1.68 µM
  TGI: > 100 µM

## Cc1cc(SCC(=O)c2ccc(Br)cc2)cc(C)[o+]1
  TGI: > 100 µM

## O=C(/C=C1\N=C(c2ccccc2)N(c2ccc3c(c2)Sc2cc(N4C(=O)/C(=C/C(=O)/C=C/c5ccccc5)N=C4c4ccccc4)ccc2N3)C1=O)/C=C/c1ccccc1
  TGI: 43.2 µM

## CCOC(=O)c1ccc(N=C/C=C(\Nc2ccc(C(=O)OCC)cc2)c2ccc3ccccc3c2)cc1
  TGI: 79.4 µM

## COc1ccc(N(C(=O)OC(C)(C)C)[C@@H]2C(C)=C[C@H]([S@@](=O)c3ccc(C)cc3)[C@@H]3C(=O)N(C)C(=O)[C@@H]32)cc1
  TGI: 72.2 µM

## COC(=O)c1c(C)nc(C)c(N=O)c1-c1ccccc1C(F)(F)F
  TGI: > 100 µM

## O=C(O)/C(Cl)=C(/Cl)C(=O)Nc1cccc(Cl)c1
  TGI: > 94.6 µM

## CCOc1ccc(N=NC2C(=O)N(C(=O)CC(=O)Nc3ccc(Cl)cc3)N=C2C)cc1 (configuration not stated)
  TGI: > 100 µM

## COc1ccc(/C=C(/C(=O)N2CCNCC2)c2cc(OC)c(OC)c(OC)c2)cc1O
  GI50: 7.48 µM
  TGI: > 100 µM

## CC(C)(C)NNc1c([N+](=O)[O-])cnn(-c2ccccc2)c1=O
  TGI: 23.4 µM

## Cc1nc2cc(O)c(O)cc2cc1Oc1ccc(NC(=O)Nc2ccc(Cl)c(Cl)c2)cc1
  GI50: 14.1 µM
  TGI: > 32.5 µM

## COc1ccc2c(c1)CC[C@@H]1C2CC[C@]2(C)OC(=O)CCC12 (some centres not stated)
  TGI: > 100 µM

## Cc1cc(Cl)ccc1N1C(=O)C(=O)C(c2nc3ccccc3s2)C(=O)C1=O
  TGI: > 100 µM

## Cc1cc2nc3c(C#N)c(-c4ccccc4)/c(=C\Nc4cccc(C(F)(F)F)c4)c(=O)n3c2cc1C
  TGI: > 100 µM

## COc1ccc(C2CC(c3cc(OC)c(OC)c(OC)c3)=NN2)cc1 (configuration not stated)
  GI50: 74.7 µM
  TGI: > 100 µM

## CCOC(=O)c1c(OCC)[nH]c(=O)c(C(c2ccc(F)cc2)c2c(O)c(C(=O)OCC)c(OCC)[nH]c2=O)c1O
  TGI: 60.8 µM

## COc1ccccc1Nc1nc(-c2cc3cccc(C(F)(F)F)c3oc2=O)cs1
  GI50: 0.955 µM
  TGI: > 100 µM

## COC(=O)C1Cc2c([nH]c3ccccc23)C=N1 (configuration not stated)
  TGI: > 100 µM

## CO/N=C1/c2cc(OC)ccc2-c2c(NOC)nc3ccccc3c21
  GI50: 28.7 µM
  TGI: > 100 µM

## C=C(C)C1CC2=C(C(=O)OC)C=C(O2)C(C(=C)C)[C@@H]2OC(=O)/C(=C\C1O)[C@H]2N(C)C (some centres not stated)
  TGI: 48.9 µM

## CCN1C(=O)N(c2c(F)c(OC)cc(OC)c2F)Cc2cnc3[nH]c(CN4CCOCC4)cc3c21
  GI50: 1.21 µM
  TGI: > 100 µM

## COc1cc(/C=C/C(=O)c2ccc(Nc3nc(Nc4ccc(F)cc4)nc(Nc4ccc(F)cc4)n3)cc2)cc(OC)c1OC
  GI50: 74.7 µM
  TGI: > 100 µM

## Cc1ccc(/C=C(\C#N)n2nnc3cc(F)c(F)cc32)cc1
  GI50: 2.98 µM
  TGI: 9.13 µM

## O=Cc1ccc(C(F)(F)F)cc1.[C-]#[O+].[C-]#[O+].[C-]#[O+].[Cr]
  GI50: 19.7 µM
  TGI: 68.4 µM

## COC(=O)c1c(-c2ccccc2)csc1NC(=O)c1c(-c2ccccc2)noc1C
  GI50: > 100 µM
  TGI: > 100 µM

## COC(=O)/C(C#N)=C1\N=NNN1CCCc1ccccc1
  TGI: > 100 µM

## Brc1ccc(-c2ccc(-c3ccc(Br)s3)s2)s1
  TGI: > 100 µM

## OC(Cn1cncn1)(Cn1cncn1)c1ccc(Cl)cc1Cl
  TGI: > 100 µM

## COc1ccccc1NC(=O)C1=C(C)NC(C)=C(C(=O)Nc2ccccc2OC)C1c1ccc(C(C)C)cc1
  TGI: > 100 µM

## C=C1C(=O)O[C@H]2C1C[C@@H](O)[C@@]1(C)OC1CC[C@@]1(C)O[C@H]21 (some centres not stated)
  TGI: 79.1 µM

## CCOC(=O)C(=Cc1ccccc1Br)C(=O)OCC
  TGI: 6.98 µM

## CCCCN(CCCC)CC(=O)c1ccc2cc(Cl)c3ccccc3c2c1
  TGI: > 100 µM
